# Measurements as given in PMC9911399, “Two distinct binding modes provide the RNA-binding protein RbFox with extraordinary sequence specificity”.
# Residue numbers refer to the chain shown, from its start. This is one part of the list.
# T1: RBFOX1 RRM (Homo sapiens, UniProt Q9NWB1 109-208)
# T1 sequence: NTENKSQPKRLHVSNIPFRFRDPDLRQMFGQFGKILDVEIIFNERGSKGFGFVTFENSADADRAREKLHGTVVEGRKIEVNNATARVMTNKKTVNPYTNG
# B1: GGGAAUA (DNA:RNA)
# RNA: GGGAGACCGGAAUUCAGAUUGUCCGGGAAUAUUAAAUCCCGUCGUAGCCACCA
# DNA 1: CAATCTGAATTCCGGTCTCCC
# DNA 2: TGGTGGCTACGACGGGATT
# B2: CUAACUG (DNA:RNA)
# RNA: B1 RNA with G25C, G26U, G27A, A29C, A31G
# DNA 1: CAATCTGAATTCCGGTCTCCC
# DNA 2: TGGTGGCTACGACGGGATT
# B3: CGACCAA (DNA:RNA)
# RNA: B1 RNA with G25C, G27A, A28C, A29C, U30A
# DNA 1: CAATCTGAATTCCGGTCTCCC
# DNA 2: TGGTGGCTACGACGGGATT
# B4: CUUCACC (DNA:RNA)
# RNA: B1 RNA with G25C, G26U, G27U, A28C, U30C, A31C
# DNA 1: CAATCTGAATTCCGGTCTCCC
# DNA 2: TGGTGGCTACGACGGGATT
# B5: AUUAGCU (DNA:RNA)
# RNA: B1 RNA with G25A, G26U, G27U, A29G, U30C, A31U
# DNA 1: CAATCTGAATTCCGGTCTCCC
# DNA 2: TGGTGGCTACGACGGGATT
# B6: CUGACGC (DNA:RNA)
# RNA: B1 RNA with G25C, G26U, A29C, U30G, A31C
# DNA 1: CAATCTGAATTCCGGTCTCCC
# DNA 2: TGGTGGCTACGACGGGATT
# B7: UAACGAC (DNA:RNA)
# RNA: GGGAGACCGGAAUUCAGAUUGUCCUAACGACUUAAAUCCCGUCGUAGCCACCA
# DNA 1: CAATCTGAATTCCGGTCTCCC
# DNA 2: TGGTGGCTACGACGGGATT
# B8: GUUAUUA (DNA:RNA)
# RNA: B1 RNA with G26U, G27U, A29U
# DNA 1: CAATCTGAATTCCGGTCTCCC
# DNA 2: TGGTGGCTACGACGGGATT
# B9: GUGCCUC (DNA:RNA)
# RNA: B1 RNA with G26U, A28C, A29C, A31C
# DNA 1: CAATCTGAATTCCGGTCTCCC
# DNA 2: TGGTGGCTACGACGGGATT
# B10: UUCUGAU (DNA:RNA)
# RNA: B7 RNA with A26U, A27C, C28U, C31U
# DNA 1: CAATCTGAATTCCGGTCTCCC
# DNA 2: TGGTGGCTACGACGGGATT
# B11: CUAAUCA (DNA:RNA)
# RNA: B1 RNA with G25C, G26U, G27A, A29U, U30C
# DNA 1: CAATCTGAATTCCGGTCTCCC
# DNA 2: TGGTGGCTACGACGGGATT
# B12: CAUGUGG (DNA:RNA)
# RNA: B7 RNA with U25C, A27U, C28G, G29U, A30G, C31G
# DNA 1: CAATCTGAATTCCGGTCTCCC
# DNA 2: TGGTGGCTACGACGGGATT
# B13: CCGACUU (DNA:RNA)
# RNA: B1 RNA with G25C, G26C, A29C, A31U
# DNA 1: CAATCTGAATTCCGGTCTCCC
# DNA 2: TGGTGGCTACGACGGGATT
# B14: GGUUUUC (DNA:RNA)
# RNA: B1 RNA with G27U, A28U, A29U, A31C
# DNA 1: CAATCTGAATTCCGGTCTCCC
# DNA 2: TGGTGGCTACGACGGGATT
# B15: GAGAUAA (DNA:RNA)
# RNA: B1 RNA with G26A, A29U, U30A
# DNA 1: CAATCTGAATTCCGGTCTCCC
# DNA 2: TGGTGGCTACGACGGGATT
# B16: CCGAUUC (DNA:RNA)
# RNA: B1 RNA with G25C, G26C, A29U, A31C
# DNA 1: CAATCTGAATTCCGGTCTCCC
# DNA 2: TGGTGGCTACGACGGGATT
# B17: CCAGGGA (DNA:RNA)
# RNA: B7 RNA with U25C, A26C, C28G, A30G, C31A
# DNA 1: CAATCTGAATTCCGGTCTCCC
# DNA 2: TGGTGGCTACGACGGGATT
# B18: UCUGUUG (DNA:RNA)
# RNA: B1 RNA with G25U, G26C, G27U, A28G, A29U, A31G
# DNA 1: CAATCTGAATTCCGGTCTCCC
# DNA 2: TGGTGGCTACGACGGGATT
# B19: UCGCAAA (DNA:RNA)
# RNA: B1 RNA with G25U, G26C, A28C, U30A
# DNA 1: CAATCTGAATTCCGGTCTCCC
# DNA 2: TGGTGGCTACGACGGGATT
# B20: GACCACC (DNA:RNA)
# RNA: B7 RNA with U25G, A27C, G29A, A30C
# DNA 1: CAATCTGAATTCCGGTCTCCC
# DNA 2: TGGTGGCTACGACGGGATT
# Target: T1, RBFOX1 RRM
# Test: EMSA; HiTS-Eq, 1 nM pool, 10 min; buffer printed only for the single-RNA assays: 10 mM Tris pH 7.5, 150 mM NaCl, 3.4 mM EDTA, 0.001% NP-40, 30 C
# Conditions: tags: His6 N-terminal (pET28a); label: 5' 32P
# Outline: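 Purified RbFox RRM, wild type or mutant, was incubated for 10 min in 50 µL with 1 nM of a 5′-radiolabelled RNA pool carrying 7 randomized nucleotides, whose flanks were annealed to DNA oligonucleotides, over a series of increasing protein concentrations. Unbound RNA was resolved on 8% native PAGE, cut out, reverse-transcribed, barcoded by PCR and sequenced on an Illumina HiSeq 2500. Relative association constants were derived from changes in read counts for each RNA species versus the control reaction and normalised to the cognate motif.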
row,Binder,binding signal
1,B1,0.0165 KA relative to UGCAUGU
2,B2,0.00774 KA relative to UGCAUGU
3,B3,0.00135 KA relative to UGCAUGU
4,B4,0.0029 KA relative to UGCAUGU
5,B5,0.00364 KA relative to UGCAUGU
6,B6,0.00839 KA relative to UGCAUGU
7,B7,0.00611 KA relative to UGCAUGU
8,B8,0.00524 KA relative to UGCAUGU
9,B9,0.0183 KA relative to UGCAUGU
10,B10,0.0162 KA relative to UGCAUGU
11,B11,0.000405 KA relative to UGCAUGU
12,B12,0.00494 KA relative to UGCAUGU
13,B13,0.00455 KA relative to UGCAUGU
14,B14,0.00906 KA relative to UGCAUGU
15,B15,0.00571 KA relative to UGCAUGU
16,B16,0.00484 KA relative to UGCAUGU
17,B17,0.00527 KA relative to UGCAUGU
18,B18,0.0254 KA relative to UGCAUGU
19,B19,0.00754 KA relative to UGCAUGU
20,B20,0.00274 KA relative to UGCAUGU
